Here are results for 70 molecules from PubChem BioAssay AID1240 (Sanford-Burnham Center for Chemical Genomics, 2008).

Values joined by “and” are separate entries in the source; they are usually repeats but may differ in a detail not shown here. Equal entries are not always repeated. About 800 (1.6%) of roughly 50,000 compounds showed an effect of 50% or more. The list shows a part of the results.

For this test, the target named is Bcl-2-like protein 10 (Homo sapiens) (UniProt Q9HD36). The test can be described thus: Phenotype converters, Bcl-B/TR3 peptide binding displacement, primary biochemical FP (AID 1240).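 Also: 0% = Bcl-B with tracer peptide and DMSO and 100% = tracer peptide lacking Bcl-B.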 As to conditions: GST-Bcl-B / FITC-TR3 peptide fluorescence polarization; stronger effect = higher value; compound at 3.75 mg/L. A general note: Polarisation of emitted light reports the rotation of a fluorescent probe.
UniProt Q9HD36, sequence (Q9HD36 whole entry, looked up): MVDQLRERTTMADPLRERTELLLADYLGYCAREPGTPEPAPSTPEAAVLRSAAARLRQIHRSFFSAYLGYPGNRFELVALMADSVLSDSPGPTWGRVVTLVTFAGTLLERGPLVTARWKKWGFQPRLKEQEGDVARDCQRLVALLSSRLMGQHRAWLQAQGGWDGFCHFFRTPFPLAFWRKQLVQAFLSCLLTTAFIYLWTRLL
For `O=C(Nc1ccc(Cl)c(C(F)(F)F)c1)c1cccc(Br)c1`, the displacement is 2.7%.

Consider `Cc1ccc(NCCC(=O)c2ccc(Br)cc2)cc1`, for which the displacement is -20.1%. As for `Oc1cc(N=C/C=C/c2cccc(Br)c2)ccc1-c1nc2ccccc2o1`, the displacement amounted to 3.7%. To `COc1ccc(C(=O)Oc2cccc(C(=S)N3CCOCC3)c2)cc1` belongs 10.9%; to `COc1ccc(C2CC(C(F)(F)F)n3nc(C(=O)N4CCN(c5ccc(F)cc5)CC4)c(Cl)c3N2)cc1OC` (stereo not given), 13.8%; to `COc1ccc(OCC(=O)Nc2ccc3c(c2)OCCO3)cc1`, 11.4%. To `O=C(Nc1ccc(Br)cc1)C1CN(S(=O)(=O)c2ccccc2)CCN1S(=O)(=O)c1ccccc1` (stereo not given) belongs 0.1%; to `O=C(Oc1ccccc1C(=S)N1CCOCC1)c1ccc(Br)cc1`, 11.6%. To `Cc1cc(=O)oc2cc3c(cc12)OCCO3` belongs 19.9%.

Turning to `CCc1ccccc1NC1=C(Cl)C(=O)N(c2ccc(OC)cc2)C1=O`, the displacement worked out at 14.4%. In the case of `CCOC(=O)C1=C(O)/C(=C/c2ccc(OC)cc2)SC1=Nc1ccccc1`, the displacement was determined as 7.6%. For `COc1cccc(NC(=O)C(=O)NCc2cccnc2)c1`, the displacement was determined as 8.5%. For `Cc1cccc(C2(c3cccc(C)c3)CC2C(=O)NC(C)C)c1` (stereo not given) the value was 5.1%; for `C=CCn1c(SCC(=O)N(CC)CC)nc(O)c(Cc2ccccc2)c1=O`, -6%; for `Cc1ccc(N2CC(C(=O)Nc3cc(C)ccc3F)CC2=O)cc1` (stereo not given), 5.2%. For `COc1cc(-c2nnc3ccc4ccccc4n23)ccc1Oc1ccc([N+](=O)[O-])cc1` the value was -3%; for `CC(=O)Nc1ccc(-c2nc3ccc(-c4ccc5nc(-c6ccc(NC(C)=O)cc6)oc(=O)c5c4)cc3c(=O)o2)cc1`, -3.3%. To `COc1ccc(/C=C/C(=O)Nc2ccc(Br)cc2C(=O)c2cc(OC)c(OC)c(OC)c2)cc1OC` belongs 1.6%; to `CCC(=O)/C=C1\Sc2ccccc2N1CC`, 19.4%; to `Cc1cc(Cl)ccc1N(CC(=O)NCc1cccnc1)S(=O)(=O)c1ccccc1`, -9.2%. As for `CC1CCN(C(=O)CCCOc2ccc(Cl)cc2Cl)CC1`, the displacement is -13.5%. To `COC(=O)c1ccc(N=Cc2ccc(Cl)cc2)cc1` belongs 18%; to `CC1=C(C(=O)OCc2ccccc2)C(c2ccccc2Cl)C2=C(CC(C)(C)CC2=O)N1` (stereo not given), 3.1%; to `CCC1CCC(=O)C(C2(O)C(=O)Nc3ccccc32)C1` (stereo not given), 7.1%. For `O=[N+]([O-])c1ccc(C=Nc2ccc(Cl)cc2)o1` the value was -6.6%; for `CCOc1c(I)cc(/C=C2\C(=O)ON=C2c2ccccc2)cc1OC`, 3.5%; for `CCN1C(=O)N(C)C2C1N(C)C(=O)N2CC` (stereo not given), -0.9%. For the molecule `Cc1ccccc1C(=O)Nc1c(C(=O)NCc2ccco2)cnn1-c1ccccc1`, the displacement was -7.2%. For `C=CCSc1nc2ccccc2n1C(=O)CN1C(=O)c2ccccc2C1=O` the value was -16.3%; for `Cc1ccc(-c2c(C#N)c(SCC(=O)c3ccc(O)c(O)c3)nc3c2CCCC3)o1`, 31.2%. To `COCCOC(=O)c1ccc(NC(=O)COc2ccc(Cl)cc2C)cc1` belongs 0%; to `COc1ccc(/C=C2\C(=O)NC(=O)N(c3cc(C)cc(C)c3)C2=O)cc1C`, -15.6%; to `Cc1ccc(N/C(=N\S(=O)(=O)c2ccccc2)Nc2nc(C)cc(C)n2)cc1`, 7.1%. For `COc1ccc(/C=C2\SC(N3CCCC3)=NC2=O)cc1` the value was 7.8%; for `CC1=NN(c2cccc(F)c2)C(=O)/C1=C\c1ccc2c(c1)OCO2`, -5.1%. `Cc1cc(=O)[nH]c(SCC(=O)Nc2ccccc2[N+](=O)[O-])n1`: the displacement was 2.2%. To `COc1ccc(CCNS(=O)(=O)c2ccc(Cl)cc2)cc1` belongs -0.6%; to `CC(C)c1ccc(NC(=O)c2cccc(I)c2)cc1`, -14.1%; to `CC(C)(C)c1cc(C(=O)N/N=C/c2ccc(F)cc2)n[nH]1`, -1%. To `CCCOC(=O)c1ccc(NC(=O)CCC)cc1` belongs -1.2%. Turning to `O=C(COc1ccccc1[N+](=O)[O-])Nc1ccc(-c2nc3cc(Cl)ccc3o2)cc1`, the displacement came out at 22.7%. For `CCOc1cccc(N2C(=O)NC(=O)/C(=C\c3ccc(Sc4ccccc4)o3)C2=O)c1` the value was 4%; for `CCOC(=O)C1=C(C)NC(=S)NC1c1ccc(C(=O)O)cc1` (stereo not given), 10.4%. Regarding `Cc1cc(N2C(=O)NC(=O)/C(=C\c3cccc(O)c3)C2=O)ccc1Br`, the displacement is -17.5%.

As to `CCc1ccc(NC(=S)NC(=O)/C=C/c2ccccc2)cc1`, the displacement was -2.4%. For `CCc1ccc(NC2=C(Cl)C(=O)N(c3cccc(Cl)c3)C2=O)cc1` the value was 1.2%. For `CCC(C)c1ccc(NC(=O)Cc2ccc(Cl)cc2)cc1` (stereo not given) the value was 0.7%; for `CC(=O)N/N=C/c1cc(C)n(-c2ccc(Cl)cc2)c1C`, -11.4%; for `C/C(=N\Nc1cc(-n2cc(C)cn2)ncn1)c1c(F)c(F)c(F)c(F)c1F`, -11.6%. For `COc1ccccc1NC(=O)/C(=C\c1cccnc1)NC(=O)c1ccc(C)cc1` the value was 1.1%; for `CC1=NN(c2ccc(S(N)(=O)=O)cc2)C(=O)/C1=C\c1ccc(C)s1`, 4.7%; for `S=C1NCCOCCOCCOCCN1`, 2.3%. As for `CCCCOc1ccc(-c2nc(N)n[nH]2)cc1`, the displacement was 0.4% and -1.3%. Regarding `OC(c1ccc(Br)cc1)C12CN3CN(CN(C3)C1)C2` (stereo not given), the displacement is -6.5%. For `O=C(c1cccs1)N1CCN(C2CCCC2)CC1` the value was 14.5%; for `O=C(Nc1ccc2oc(-c3cccnc3)nc2c1)c1ccc(OCc2ccccc2)cc1`, 5%. For the molecule `CCC(O)C#CC1(C)CCCC(C)(C)O1` (stereo not given), the displacement is -6%. Turning to `CC1=CC(C)(C)N(S(=O)(=O)c2ccc(C)cc2)c2ccc(C)cc21`, the displacement was -4.8%.

Consider `COc1ccc(/C=C/C(=O)Nc2ccc(C)c(C)c2)cc1`, for which the displacement was -12.6%. For `O=C(Oc1ccc2oc(=O)sc2c1)c1ccccc1` the value was 15.7%. In the case of `CCN(CC)c1ccc(/C=C2\C(=O)NC(=O)N(c3ccc(Cl)cc3)C2=O)o1`, the displacement is -37.1%. For `CCOC(=O)C1=C(O)/C(=C/c2ccc([N+](=O)[O-])cc2)SC1=Nc1ccc(C)cc1` the value was -3.1%; for `CCSc1nnc(NC(=O)c2sc3ccccc3c2Cl)s1`, 3.3%.

For the molecule `COc1ccc(C2CC(=O)C3=C(C2)Nc2ccccc2NC3c2ccc(C(C)C)cc2)cc1` (stereo not given), the displacement is -0.8%. For `Cc1c(Cl)cccc1NC(=O)CSC(N)=O` the value was 7.4%. On to `CCOC(=O)c1c(-c2ccc(Br)cc2)csc1NC(=O)CSc1ccccc1`, for which the displacement is -10.1%. With `COc1cc(OC)c(C=C2C(=O)NC(=O)NC2=O)cc1Br`, the displacement is -10.9%. In the case of `Cc1ccc(OCC(=O)Nc2cc(Cl)ccc2Cl)cc1`, the displacement is -5.7%. For `Cn1cccc1-c1cc(C(=O)N/N=C/c2cccc(O)c2)[nH]n1` the value was 39.6%; for `CC(=O)c1cccc(NC(=O)c2cc(Cl)ccc2Cl)c1`, -3.3%.
